PubChem BioAssay AID1346428 (National Center for Advancing Translational Sciences (NCATS), 2018)
Hit rate of the full screen: of about 48,000 compounds, about 1,200 (2.5%) were called active. Another 2% or so got no clear call; they are omitted.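 Rule for the calls: active = activation of at least 60% and not above a set upper limit (about 1 call in 100 departs from these limits); inconclusive = activation of 40% to 60%, or above that upper limit; inactive = activation under 40%.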 The list shows a part of the results.

biological target: Probable G-protein coupled receptor 32 (Homo sapiens) (UniProt O75388); test: qHTS for Agonists of Human Resolvin D1 Receptor DRV1; details: CHO-K1 GPR32 beta-arrestin PathHunter luminescence, 90 min; at 76.9 µM; hits give high values; zero percent set by DMSO-only wells; note: 0% is about no effect
Sequence of UniProt O75388 (O75388 whole entry, looked up, the tested form may be a part): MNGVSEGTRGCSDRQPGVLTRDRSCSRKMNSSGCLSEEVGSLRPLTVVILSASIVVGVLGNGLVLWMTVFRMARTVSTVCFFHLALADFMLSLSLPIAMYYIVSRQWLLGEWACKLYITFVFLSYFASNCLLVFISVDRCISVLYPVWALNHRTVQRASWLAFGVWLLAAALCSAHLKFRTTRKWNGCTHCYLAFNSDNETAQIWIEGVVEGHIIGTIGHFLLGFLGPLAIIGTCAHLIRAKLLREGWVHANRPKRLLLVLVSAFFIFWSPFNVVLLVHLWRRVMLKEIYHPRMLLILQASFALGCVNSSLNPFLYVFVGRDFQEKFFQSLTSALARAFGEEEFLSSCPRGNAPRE
Summary of the method: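 Agonism was scored by beta-Gal fragment complementation (chemiluminescent read, 1 h detection at ambient temperature) reporting beta-arrestin binding to GPR32 in engineered CHO-K1 cells. Compound treatment lasted 90 min at 37 C, normalized to a DMSO basal control.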

activation, inactive:
CCOC(=O)c1cc2c(=O)n3ccccc3nc2n(C)c1=NC(=O)c1c(-c2c(F)cccc2Cl)noc1C -6.58%, O=C(Nc1ccc(Br)c(Cl)c1)c1ccc(C(=O)Nc2ccc(Br)c(Cl)c2)cc1 -4.13%, CCCCCn1c(CCCNC(=O)c2ccc(Cl)cc2)nc2ccccc21 1.52%, COc1ccccc1CNC(=O)C(=O)NCC(c1ccco1)S(=O)(=O)c1ccc(C)cc1 (centres undefined) -13.8%, NC(N)=NN=C(/C=C/c1ccc([N+](=O)[O-])o1)/C=C/c1ccc([N+](=O)[O-])o1 -26.4%, COC(=O)C1=C(C)N(C(C)C)C(=O)C1(NC(=O)c1ccccc1OC)C(F)(F)F (centres undefined) -10.7%, O=C1NC(=O)/C(=C/c2ccc3nccnc3c2)S1 -1.82%, COc1ccc(-c2nc(C(=O)Nc3cccc(C(C)=O)c3)nn2-c2ccccc2Cl)cc1 -3.85%, COc1ccc(CNC(=O)CCc2nnc3n(C)c(=O)c4sccc4n23)cc1 -3.51%, COCCCNC(=O)c1cc2c(-c3cccc(OC)c3)nn(C)c2s1 -4.5%, O=C(CSc1nccn1Cc1ccc(Cl)cc1)Nc1nc2ccccc2s1 0.0791%, CCC(=O)N1CCc2cc(Br)cc(S(=O)(=O)Nc3ccccc3C(=O)OC)c21 -10.5%, COc1ccc(N2CCN(C(=O)c3cc4c(=O)n(Cc5ccco5)ccc4nc3C)CC2)cc1 -15.2%, O=C(NCc1ccccc1Cl)c1ccccc1NC(=O)c1nsc2ccccc12 -2.55%, COc1cc(OC)c(NC(=O)c2cnn(-c3ccccc3)c2-n2cccc2)cc1Cl -8.21%, CCOc1cc(-c2nc(-c3ccc(-c4ccccc4)nc3OCC)no2)cc(OCC)c1OCC -12.9%, CCc1ccc(NC(=O)c2cc(S(=O)(=O)N3CCCC(C)C3)cn2C)cc1 (centres undefined) 22.2%, Cc1ccccc1CCNC(=O)c1ccc(Cn2c(=O)c3cccn3c3cccnc32)cc1 -13.1%, CCOC(=O)[C@H](CCc1ccccc1)N[C@H]1CS[C@H](c2cccs2)CN(CC(=O)O)C1=O -9.07%, CCC(=O)N1CCc2cc(CNC(=O)c3cccc(N(C)C)c3)ccc21 -32.4%, COc1ccc(NC(=O)C2CCCN(c3ncnc4onc(C)c34)C2)cc1OC (centres undefined) 17.8%, CCC(CN)=C(c1ccccc1)c1ccccc1 6.91%, Cc1ccccc1NC(=O)C1CCN(S(=O)(=O)c2c(C)noc2/C=C/c2ccco2)CC1 -22.6%, COc1ccc(C(=O)NCc2ccc3c(c2)CCN3C(C)=O)c(OC)c1 -0.363%, CCc1ccccc1NC(=O)Cn1nc(CC)n2c(cc3sccc32)c1=O -3.33%, CCC(=O)OC1=C(C(C)=O)N(Cc2ccccc2)S(=O)(=O)c2ccccc21 -16.4%, Cc1ccc(Cn2c(SCc3ccc(C(=O)N4CCCCC4)cc3)nc3ccncc32)cc1 7.54%, CCc1ccccc1N1C(=O)CN(S(=O)(=O)CC)CC1(C)C(=O)NC1CCCCC1 (centres undefined) -7.6%, NC(=O)c1ccc([N+](=O)[O-])cc1Cl -8.38%, Cc1ccc(-c2c3c(=O)n(C)c(=O)n(C)c3c3n2-c2ccccc2NC3c2ccc(C)cc2O)cc1 (centres undefined) -0.68%, COc1ccc(-c2cc(C(=O)N3CCCCC3C)no2)cc1OC (centres undefined) -24.8%, Cc1ccc(Cl)cc1N1CCN(S(=O)(=O)c2cn(C)c(C)n2)CC1 0.18%, O=C(COc1ccccc1)Nc1nnc(S(=O)(=O)Nc2ccccc2)s1 8.67%, COc1ccc(C(=O)c2sc3nc4c(c(C(F)(F)F)c3c2N)CN(C(C)=O)CC4)cc1OC 22.4%, CCOc1ccccc1C1C(C(=O)Nc2ccccc2)=C(C)Nc2nc(SCC(=O)c3ccc(C)cc3)nn21 (centres undefined) -15.7%, CC1CCCCN1CCCNC(=O)CN1C(=O)c2cccnc2Oc2ccc(Cl)cc21 (centres undefined) 0.555%, O=C(c1ccc(Cl)cc1)N1CCN(CCc2ccncc2)CC1 -9.44%, CCOc1ccccc1NC(=O)Nc1nnc(N2CCCC(C)C2)s1 (centres undefined) -3.49%, O=C1OCCN1/N=C/c1ccc([N+](=O)[O-])o1 20.3%, Cc1ccc(-c2nnc(Nc3cccc(Cl)c3)c3ccccc23)cc1S(=O)(=O)N1CCN(C)CC1 -9.19%, CCN(Cc1ccccc1)c1ncnc2c1cnn2-c1ccc(F)cc1 5.72%, O=C(Nc1ccc(Oc2ccc(Cl)cc2)c(Cl)c1)c1cc(I)cc(I)c1O -5.44%, COc1ccc(C(=O)NCCn2cc(SCc3ccc(C(F)(F)F)cc3)c3ccccc32)cc1OC 7.39%, Cc1cccc(NC(=O)CSC2=Nc3ccccc3C3=NC(CC(=O)NCc4cccs4)C(=O)N23)c1 (centres undefined) -25.1%, COc1cccc(CNC(=O)C2CCCN(S(=O)(=O)N(C)c3ccc(F)cc3)C2)c1OC (centres undefined) 6.31%, COc1ccc(CNC(=O)CCCn2nc(C)n3c(cc4sccc43)c2=O)cc1 2.74%, COc1ccccc1/C=C/c1nc(C#N)c(NC2CCCCC2)o1 -13.1%, COCCn1c(C)cc(O)c(C(c2ccccc2OC)N2CCN(c3ccccc3)CC2)c1=O (centres undefined) -8.9%, CCOC(=O)c1cnc2ccc(Br)cc2c1NCCN1CCOCC1 22.2%, Cc1ccc(NC(=O)CN2C=NS(=O)(=O)c3ccccc32)cc1 28.3%, CCOC(=O)COc1ccc(CC)cc1C(=O)c1ccn2nc(-c3ccc(F)cc3)cc2n1 -22.8%, COc1ccc(-c2noc(CC(=O)N(C)c3cccc(C)c3)n2)cc1 -16.4%, COc1ccc(C(=O)c2cn(Cc3ccccc3F)c3cc4c(cc3c2=O)OCCO4)cc1OC -10.8%, O=C(Nc1ccc2c(c1)CCCN2C(=O)c1cccs1)c1ccc(F)c(F)c1 10.9%
